This note sets out measurements from PubChem BioAssay AID1508623 (National Center for Advancing Translational Sciences (NCATS), 2021).

The structures appear in SMILES notation. Screen size: about 48,000 compounds; about 450 (0.94%) were called active. Another 19% or so got no clear call; they are omitted. Calls follow the shape of the dose curve; as a rule, active = well fitted inhibition curve with a large enough effect; inconclusive = small, poorly fitted or top-dose-only effect; inactive = no such curve, though single readings can be large or run the other way. Some of the results follow.
Potency is read from the fitted curve at half-maximal effect.

The experiment in a line: Primary qHTS for Identification of Small Molecule Inhibitors of Huntingtin Promoter Activity. Also: nearly all actives have a fitted effect of over 50% in size. Conditions: HEK293 HTT promoter firefly luciferase reporter (activity 0% = vehicle and -100% = no light), 24 h; series mostly up to 57.5 µM; activity change, negative = inhibition: at the top concentration. A digest of the protocol: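 Luminescence was read after Dual-Glo reagent and a 10 min room-temperature incubation. Values were normalized to vehicle (0% activity) and zero RLU (-100% activity). Reporter HEK293 cells had been exposed to compounds (up to 57.5 uM final) for 24 h.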
Take `COc1ccccc1CNC(=O)CN1C(=O)COc2ccc(S(=O)(=O)N3CCC(C)CC3)cc21`: the “activity change, negative = inhibition” value was inactive: -3.18%.
Same read-out and setting: next, `O=C(Cn1cc(S(=O)(=O)N2CCCC2)c(S(=O)(=O)N2CCCC2)c1)Nc1cccc(F)c1`: inactive: -8.75%.
On the same count and under the same terms, next, `CCc1ccc(NC(=O)C(C)n2nnc3sc(-c4ccccc4)cc3c2=O)cc1` (configuration not stated): inactive: 15%; `COc1ccc(NC(=O)/C(C#N)=C/c2cc(C)n(-c3ccc(F)cc3)c2C)cc1`: inactive: 5.1%.
Consider `CC(C)C(=O)N(Cc1ccccc1)S(=O)(=O)c1ccc2c(c1)oc(=O)n2C`, for which the “activity change, negative = inhibition” value was inactive: -10.2%.
Regarding `Cc1ccc(-n2c(=O)c3c4c(sc3n(Cc3cccc(Cl)c3)c2=O)CCC4)cc1C`, the “activity change, negative = inhibition” value is inactive: -22.5%.
`Cc1nc2nc(SCC(=O)O)nn2c(C)c1Cc1c(F)cccc1Cl`: the “activity change, negative = inhibition” value was inactive: -8.91%.
Regarding `Cc1ccc(CN(C(=O)COc2ccc(Cl)c(C)c2)C2CCS(=O)(=O)C2)o1` (configuration not stated), the “activity change, negative = inhibition” value was inactive: -28.5%.
Same read-out and setting: in the case of `Cc1ccc(Cl)cc1NC(=O)Cn1c(=O)n(CCCS(=O)(=O)C2CCCCC2)c(=O)c2ccccc21` it was inactive: -19.5%; in that of `CCOc1ccc(NC(=O)Cn2cc(C(=O)c3ccc(CC)cc3)c(=O)c3cc(OC)c(OC)cc32)cc1`, inactive: -1.79%; in that of `COc1ccc(S(=O)(=O)NCCCO)cc1-c1nnc2c3ccccc3c(C)nn12`, inactive: -11.7%.
The same measure, in the same setting: in the case of `COc1ccc2cc3cc(C(=O)N4CCN(c5cccc(Cl)c5)CC4)sc3nc2c1` it was inactive: -0.584%; in that of `COc1ccc(NS(=O)(=O)c2ccc3c(c2)CCN3C(=O)CCC(=O)O)cc1Cl`, inactive: -13.2%.
On the same count and under the same terms, next, `CCc1ccc(-n2c(=O)c3sc4ccccc4c3n(CC(=O)NC3CCCCC3)c2=O)cc1`: inactive: -5.85%; `Cc1ccc(NC(=O)Cn2nc(-c3ccncc3)ccc2=O)cc1Cl`: inactive: -5.91%.
`CC(C)CCNC(=O)CSc1nc2ccccc2nc1Cc1ccccc1`: the “activity change, negative = inhibition” value was inactive: 2.4%.
Take `Cc1cc(NC(=O)CCS(=O)(=O)c2cc(Br)cc3c2N(C(=O)C2CC2)CC3)ccc1Br`: the “activity change, negative = inhibition” value was inactive: -18.1%.
The same measure, in the same setting: in the case of `COc1cc2c(cc1OC)C(COc1ccc3c(C)cc(=O)oc3c1)N(C(=O)C(C)C)CC2` (configuration not stated) it was inactive: -10.9%; in that of `CCOC(=O)c1nc(Nc2ccc(C(C)=O)cc2)c2ccccc2n1`, inactive: -19.6%; in that of `O=C(Nc1c(C(=O)Nc2ccc(F)cc2)oc2ccccc12)c1cc2ccccc2o1`, inactive: 5.66%.
Still for that read-out and setting: next, `COc1ccc(Cn2c(=O)c3cccnc3n(CC(=O)Nc3ccc(C)c(F)c3)c2=O)cc1`: inactive: 7.34%.
On to `Cc1cc(Oc2c(C(F)(F)F)oc3c(CN4CCC(C)CC4)c(O)ccc3c2=O)cc(C)c1Cl`, for which the “activity change, negative = inhibition” value was inactive: -33.6%.
Consider `Cc1ccc(C)c(CNC(=O)c2ccc3c(c2)nc2n3CCCCC2)c1`, for which the “activity change, negative = inhibition” value was inactive: 9.69%.
As to `C[C@H](NC(=O)OC(C)(C)C)c1nnc(SCc2c(F)cccc2Cl)o1`, the “activity change, negative = inhibition” value is inactive: -32.1%.
As for `O=C(O)CP(=O)(O)O`, the “activity change, negative = inhibition” value was inactive: 1.13%.
For the compound `CCc1ccc(NC(=O)Cn2nc3c4ccccc4n(Cc4ccccc4)cc-3c2=O)cc1`, the “activity change, negative = inhibition” value was inactive: -7.72%.
On the same count and under the same terms, next, `COCCCNC(=O)c1cc2c(=O)oc3ccc(C)cc3c2s1`: inactive: -17%; `CCc1nc2ccc(C(=O)N3CCN(c4cccc(C)c4C)CC3)cc2nc1CC`: inactive: -10.4%; `Cc1ccc(-c2nc3c4ccccc4[nH]c(=O)n3n2)cc1`: inactive: 63.8%.
The same measure, in the same setting: in the case of `CCOc1ccc(-c2cc(OC(=O)c3ccc(OC)cc3)c3c(C)oc(C)c3c(=O)c2)cc1` it was inactive: -25.3%; in that of `O=C1CC(c2cccc(O)c2)c2c(nc(SCc3ccccc3F)[nH]c2=O)N1` (configuration not stated), inactive: -4.11%.
The same measure, in the same setting: in the case of `CCOc1ccc(C(=O)N(Cc2sccc2C)C2CCS(=O)(=O)C2)cc1` (configuration not stated) it was inactive: -17.6%; in that of `CCn1c2ccccc2c2cc(CN3CCN(Cc4ccccc4Cl)CC3)ccc21`, inactive: -14.3%; in that of `COc1cccc(NC(=O)CSc2nc3cc(OC)c(OC)cc3c3nc(-c4ccccc4)nn23)c1`, inactive: 4.02%.
Turning to `COc1cc(OC)c(NC2(c3ccccc3)C(=O)c3ccccc3C2=O)cc1Cl`, the “activity change, negative = inhibition” value is inactive: -5.02%.
With `CC(=O)Nc1ccc(S(=O)(=O)Nc2cc(C)on2)cc1`, the “activity change, negative = inhibition” value was inactive: 10.2%.
In the case of `Cc1ccc(CN2CCCN(CC(=O)Nc3ccc(C)cc3C)S2(=O)=O)cc1`, the “activity change, negative = inhibition” value was inactive: -3.46%.
On to `O=c1c(-c2cc(-c3ccccc3)nc3c2COc2ccc(Cl)cc2-3)coc2ccc(F)cc12`, for which the “activity change, negative = inhibition” value was inactive: -7.34%.
The same measure, in the same setting: next, `O=C(Nc1nc2n(n1)C(c1ccc(F)cc1)C=C(c1ccccc1)N2)c1ccco1` (configuration not stated): inactive: -21.1%; `Cc1c(Cl)cccc1NC(=O)c1ccc2c(c1)CCN2S(=O)(=O)c1ccccc1`: inactive: -18.3%.
Still for that read-out and setting: next, `CN(C)CCNc1ncnc2c1cnn2-c1cccc(Cl)c1`: inactive: -2.09%; `NC1CCN(c2nc3c(cc2F)c(=O)c(C(=O)O)cn3-c2ccc(F)cc2F)C1` (configuration not stated): inactive: 23.2%.
Still for that read-out and setting: in the case of `CN(C)c1ccc(C(CNC(=O)c2ccccc2C(F)(F)F)N2CCOCC2)cc1` (configuration not stated) it was inactive: 7.14%; in that of `COc1ccc(CNC(=O)C2CCCN(S(=O)(=O)c3cccc4nsnc34)C2)cc1` (configuration not stated), inactive: -29%.
Regarding `Cn1nnnc1SCCCNCc1cc(Cl)ccc1OCc1ccc(F)cc1`, the “activity change, negative = inhibition” value is inactive: -28.1%.
Same read-out and setting: next, `COC(=O)c1c(NC(=O)c2nc(SCc3ccc(F)cc3)ncc2Cl)sc2c1CCCC2`: inactive: -21.2%; `Cc1nn2c(=O)cc(COC(=O)Cc3ccccc3)nc2s1`: inactive: -5.59%; `CCNC(=O)/C=C/c1cccc(Br)c1`: inactive: 14.7%.
On the same count and under the same terms, in the case of `CCC1CN(C(=O)N2CCC(C(=O)Nc3ccccc3F)CC2)c2ccccc2O1` (configuration not stated) it was inactive: -13.9%; in that of `CCCC(=O)Nc1ccccc1OCc1cc(=O)n2cc(C)ccc2n1`, inactive: -5.72%.
`COc1ccc(NC(=O)CN2C(=O)COc3ccc(S(=O)(=O)N4CCCCCC4)cc32)cc1`: the “activity change, negative = inhibition” value is inactive: -27.7%.
Still for that read-out and setting: next, `Cc1ccc(C)c(N2CCN(c3c(CN4CCCC4)c(=O)oc4ccccc34)CC2)c1`: inactive: 4.58%; `O=C(Nc1cccc(Cl)c1Cl)c1cc(S(=O)(=O)NCc2ccc3c(c2)OCO3)ccc1F`: inactive: -9.5%.
In the case of `CCc1ccc(S(=O)(=O)N(C(=O)c2ccncc2)c2ccc3oc(C)c(C(=O)OC)c3c2)cc1`, the Potency is active: 12.6 µM.
For the compound `COc1ccc(CC(=O)N2CCc3cc(OC)c(OC)cc3C2COc2cc(C)cc(C)c2)cc1OC` (configuration not stated), the “activity change, negative = inhibition” value was inactive: -23.9%.
On to `Cc1nn(S(=O)(=O)c2ccc(Br)cc2)c(C)c1S(=O)(=O)N1CCCCCC1`, for which the “activity change, negative = inhibition” value was inactive: -4.97%.
The same measure, in the same setting: in the case of `Cc1cc(C)cc(NC(=O)CCS(=O)(=O)c2cccc3nsnc23)c1` it was inactive: -0.75%; in that of `CCc1ccc(N(CC)C(=O)c2cc3c(=O)oc4ccc(C)cc4c3s2)cc1`, inactive: 6.5%.
Still for that read-out and setting: next, `COc1cccc(NC(=O)C(=O)NCC(c2ccc3c(c2)OCO3)N2CCN(C)CC2)c1` (configuration not stated): inactive: 88%; `Cc1cccc(C)c1Nc1nn2c(=O)c3cc4c(cc3nc2s1)OCO4`: inactive: -6.67%.
With `Cc1cccc(NC(=O)CSc2ccc(-c3ccccn3)nn2)c1`, the “activity change, negative = inhibition” value was inactive: -22.4%.
For `CCCCN(CC)CCCNC(=O)c1cc2c(=O)[nH]c3ccccc3c2n1C`, the “activity change, negative = inhibition” value is inactive: -6.06%.
